# Source: article PMC4336329 (PLoS ONE, 2015)
# Out of some 310,000 compounds screened, about 14,000 (4.5%) showed an effect of 50% or more. The effect is printed as a negative number. Some of the results follow.
# Target: human ether-à-go-go-related gene (hERG) potassium channel (human, UniProt Q12809)
# Assay: primary screen, population patch clamp on CHO cells stably expressing hERG
# 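Also: peak tail current of the secondary pulse compared with the same well before compound.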
# Chain of human ether-à-go-go-related gene (hERG) potassium channel (Q12809 whole entry, looked up): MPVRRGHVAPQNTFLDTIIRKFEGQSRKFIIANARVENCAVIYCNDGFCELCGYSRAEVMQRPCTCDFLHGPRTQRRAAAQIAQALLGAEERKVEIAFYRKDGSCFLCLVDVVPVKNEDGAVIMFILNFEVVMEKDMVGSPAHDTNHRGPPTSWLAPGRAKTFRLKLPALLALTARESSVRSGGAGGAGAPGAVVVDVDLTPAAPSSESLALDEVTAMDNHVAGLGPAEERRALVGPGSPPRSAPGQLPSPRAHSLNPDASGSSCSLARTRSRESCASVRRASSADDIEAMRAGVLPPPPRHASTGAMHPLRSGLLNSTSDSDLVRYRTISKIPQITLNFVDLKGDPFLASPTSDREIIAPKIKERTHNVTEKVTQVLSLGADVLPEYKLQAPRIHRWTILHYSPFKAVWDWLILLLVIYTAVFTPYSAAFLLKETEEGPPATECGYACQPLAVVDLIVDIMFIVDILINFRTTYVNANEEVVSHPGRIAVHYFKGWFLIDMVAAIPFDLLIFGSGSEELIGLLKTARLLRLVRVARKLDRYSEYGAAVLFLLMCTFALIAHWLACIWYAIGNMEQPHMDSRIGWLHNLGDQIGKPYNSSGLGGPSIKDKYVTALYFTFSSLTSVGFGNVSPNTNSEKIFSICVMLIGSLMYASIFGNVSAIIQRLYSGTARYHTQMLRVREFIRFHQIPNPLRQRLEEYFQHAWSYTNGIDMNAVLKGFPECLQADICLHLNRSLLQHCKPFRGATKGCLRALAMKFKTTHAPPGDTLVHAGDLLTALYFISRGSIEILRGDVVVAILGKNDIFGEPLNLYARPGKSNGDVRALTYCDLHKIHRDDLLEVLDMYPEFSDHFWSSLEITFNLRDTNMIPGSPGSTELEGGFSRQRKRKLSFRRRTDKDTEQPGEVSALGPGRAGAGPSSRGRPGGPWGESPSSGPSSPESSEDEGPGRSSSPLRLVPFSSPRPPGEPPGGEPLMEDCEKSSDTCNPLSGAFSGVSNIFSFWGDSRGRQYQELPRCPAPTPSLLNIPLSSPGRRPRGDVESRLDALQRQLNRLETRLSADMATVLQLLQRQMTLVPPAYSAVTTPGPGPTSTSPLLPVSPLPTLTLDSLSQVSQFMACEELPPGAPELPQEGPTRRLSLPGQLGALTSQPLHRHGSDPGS
row,Structure (SMILES),"hERG current change (%, negative = inhibition) at 10uM"
1,CCOC(=O)C(Cc1ccccc1)NC(=O)CCc1c(C)nc2nc(C)nn2c1C (stereo not shown),2.42%
2,COc1cc(/C=N/NC(=S)Nc2cccnc2)cc(OC)c1OC,4.89%
3,CNC(=S)NNC(=O)c1sccc1OCc1ccc(C)cc1,0.12%
4,COCCN(CCOC)C(=O)Nc1ccc(Cl)cc1,-4.35%
5,Cc1cccc(C)c1NC(=O)CS(=O)CC(=O)NCCCc1ccccc1 (stereo not shown),10.4%
6,COc1cccc(-c2nnc(-c3ccc(C)o3)o2)c1,-32.5%
7,CCCc1nc2oc3c(NCCN4CCOCC4)ncnc3c2c2c1CCCC2,-1.37%
8,CCOC(=O)C(C)n1cnc2c(oc3ccccc32)c1=O (stereo not shown),11.1%
9,O=C(NC1CC1)C1CCN(C2CCN(C(=O)c3ccc4cccc(F)c4n3)CC2)CC1,5.42%
10,NS(=O)(=O)c1ccc(-c2ccc(/C=C3\NC(=S)NC3=O)o2)cc1,5.83%
11,COc1ccc(N(CC(=O)NCCSCc2cccc(Cl)c2)S(C)(=O)=O)cc1Cl,-5.2%
12,COc1ccc(-c2nc(CN3CCN(c4cc(C)nc(C)c4)CC3)c(C)o2)c2ccccc12,-73.6%
13,O=C1c2ccccc2C(=O)C1c1ccc2ccccc2n1,-13.4%
14,Fc1cccc(-c2csc(-c3ccno3)n2)c1,3.8%
15,CCOCc1nnc(NC(=O)c2cc(OC)cc(OC)c2)s1,34.5%
16,CCCn1nnc(NC(=O)COc2cc(C)ccc2C(C)C)n1,-23.2%
17,CCOc1cc(S(=O)(=O)NCc2ccccn2)c(C)cc1C,-15.4%
18,CC(=O)c1sc(NC(=O)c2ccc(Cl)cc2)nc1C,9.38%
19,CNC(=S)N1N=C(c2ccccc2)CC1c1ccc(Br)cc1 (stereo not shown),-18.9%
20,O=C(CSc1ccc2ccccc2c1)NCCc1ccc(O)c(O)c1,-0.593%

row,Structure (SMILES),"hERG current change (%, negative = inhibition) at 10uM"
1,CCCN1CCN(c2nc3c([nH]2)c(=N)ncn3CC(O)CO)CC1 (stereo not shown),21.6%
2,O=C(c1c(F)cccc1F)N1CCN(S(=O)(=O)c2ccc3c(c2)OCCO3)CC1,-26.8%
3,O=C(Nc1cc(C(F)(F)F)ccc1Cl)C(Sc1n[nH]c(=O)[nH]c1=O)c1ccccc1 (stereo not shown),0.149%
4,Cc1c(C(=O)NC2CCCc3ccccc32)oc2ccccc12 (stereo not shown),5.99%
5,COc1ccc(C)cc1NC(=O)N1CCC(CO)(CC2CCCCO2)CC1 (stereo not shown),11.4%
6,CCC(O)c1cc2c(cc1NC(=O)c1ccc(C)cc1)OCCO2 (stereo not shown),8.34%
7,CCN1CNC(=S)N(CCc2ccccc2)C1,16.4%
8,CCOC(=O)/N=C(/NC(=O)Nc1ccc(C(=O)OCC)cc1)OC,4.19%
9,Cc1ccc(S(=O)(=O)N(C)C)cc1NC(=O)COC(=O)c1c(-c2ccccc2)noc1C,-24.8%
10,C=CCn1c(SCC(=O)Nc2ccc(NC(=O)c3ccco3)c(OC)c2)nnc1-c1ccncc1,-6.37%
11,Cc1cc([N+](=O)[O-])ccc1NC(=O)C(C)NC1CCCCC1 (stereo not shown),-10.6%
12,Cc1c(NC(=O)/C(=C/c2cccs2)c2cccs2)c(=O)n(-c2ccccc2)n1C,-14.5%
13,O=C(NCc1n[nH]c(=S)n1-c1ccccc1)c1cccs1,15.3%
14,CCOc1ccc(N2CC(C(=O)NCCN3C(=O)S/C(=C\c4ccc(OC)cc4)C3=O)CC2=O)cc1 (stereo not shown),-6.7%
15,O=C(Cc1ccc([N+](=O)[O-])cc1)NCc1cccnc1,6.09%
16,Cc1ccsc1C(=O)N1CCCC(CO)(Cc2ccccc2F)C1 (stereo not shown),8.6%
17,CCN1C(=O)CSC1=Nc1ccccc1Cl,13.6%
18,Cc1nc(SCC2(C)CC2(Cl)Cl)n[nH]1 (stereo not shown),16.4%
19,COc1cc(CN2CCNC(=O)C2CC(=O)NCCCC2CCCC2)cc(OC)c1 (stereo not shown),-10.3%
20,CSC1=N/C(=C\c2ccccc2C)C(=O)S1,23.9%

row,Structure (SMILES),"hERG current change (%, negative = inhibition) at 10uM"
1,COc1cccc(N/C(N)=N/c2nc(C)cc(=O)[nH]2)c1,12.7%
2,COc1ccc(CC(=O)NNc2ncnc3c2cnn3Cc2ccccc2)cc1OC,14.3%
3,COc1ccc(C(=O)N/C(=C\c2ccccc2)C(=O)Nc2cccc(C(=O)O)c2)cc1,20.9%
4,COc1ccc(S(=O)(=O)N2CCN(C(=O)c3cc(-c4ccc(C)cc4)n[nH]3)CC2)cc1,-12.9%
5,Cc1nc(-c2ccccc2)sc1-c1nnc(C2CC2)o1,-22.6%
6,c1cc(-c2cccs2)nc(-c2cccs2)c1,-3.77%
7,CC(C)c1ccc(N2C(=O)NC(=O)/C(=C\C=C\c3ccco3)C2=O)cc1,16.4%
8,COC(=O)CN1C(=O)C2(OCCCO2)c2ccccc21,-7.31%
9,CC1CN(C(=O)Cn2cc(S(=O)(=O)CC(=O)N(C)c3ccccc3)c3ccccc32)CC(C)O1 (stereo not shown),16.3%
10,Cc1cccc(OCC(=O)NCc2ccccc2)c1,13.6%
11,COCCN(C(=O)COC(=O)CCn1c(C)csc1=O)c1c(N)n(Cc2ccccc2)c(=O)[nH]c1=O,12.7%
12,CCOC(=O)C(=CNNc1c(C)csc1C(=O)OC)C(=O)OCC,14.9%
13,N#Cc1c2n(c3c(=O)n(Cc4ccccc4Cl)cnc13)CCCCC2,-18.8%
14,CCCn1c2ccccc2c2nnc(SCC(=O)Nc3nnc(CC(=O)OCC)s3)nc21,-6.4%
15,Cc1ccc(OC(C)C(=O)N2CCCc3ccccc32)cc1 (stereo not shown),-16.3%
16,CN1CCCN(c2ncnc3scc(-c4ccc(F)cc4)c23)CC1,-21.9%
17,C=C(C)Cn1c(CCNC(=O)CC)nc2ccccc21,-5.61%
18,CCN(c1ccccc1)S(=O)(=O)c1ccc(C(=O)N(CCCN(C)C)c2nc3c(C)cccc3s2)cc1.Cl,-34.7%
